# Experimental data taken from PubChem BioAssay AID1240 (Sanford-Burnham Center for Chemical Genomics, 2008).
# Hit rate of the full screen: of about 50,000 compounds, about 800 (1.6%) showed an effect of 50% or more. This is one part of the list.
# Target: Bcl-2-like protein 10 (Homo sapiens) (UniProt Q9HD36)
# Test: TR3 peptide-Bcl-B binding displacers, biochemical primary FP assay, phenotype converters (AID 1240);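 note: 0% = Bcl-B with tracer peptide and DMSO and 100% = tracer peptide lacking Bcl-B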
# Settings: GST-Bcl-B / FITC-TR3 peptide fluorescence polarization; stronger effect = higher value; compound at 3.75 mg/L
# Sequence of UniProt Q9HD36 (Q9HD36 whole entry, looked up): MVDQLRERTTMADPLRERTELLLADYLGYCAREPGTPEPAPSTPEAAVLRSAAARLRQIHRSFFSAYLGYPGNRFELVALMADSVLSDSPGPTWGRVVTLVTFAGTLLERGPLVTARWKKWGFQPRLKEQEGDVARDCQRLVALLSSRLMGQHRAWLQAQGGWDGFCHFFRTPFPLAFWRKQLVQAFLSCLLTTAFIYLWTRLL
row,Structure (SMILES),displacement [%]
1,CN(C)c1ccc(/C=C2\SC(=S)N(c3cccc(C(=O)O)c3)C2=O)cc1,-76.7
2,CCOc1ccc(N2C(=O)CC(Nc3ccc(N4CCOCC4)cc3)C2=O)cc1 (stereo not drawn),8.5
3,COc1cc(C(=O)Nc2cccc(NC(=O)c3ccccc3Cl)c2)ccc1[N+](=O)[O-],21.3
4,Ic1ccc(OCCCCN2CCCC2)cc1,12.7
5,O=C(NCc1ccco1)c1cc(-c2ccccc2)nc2ccccc12,-9.5
6,Cc1cccc(NC(=O)C(=O)NNC(=O)c2ccc(C(C)(C)C)cc2)c1,-10
7,COc1cc(CNCc2c[nH]c3ccccc23)cc(OC)c1OC,2
8,CCOc1ccc(/C=C2\C(=O)NC(=S)N(c3cccc(Cl)c3)C2=O)cc1Cl,10.2
9,Cc1ccc(/C(O)=C2\C(=O)C(=O)N(CCCC(=O)O)C2c2cccc(F)c2)cc1 (stereo not drawn),7.1
10,O=C1NC(=S)S/C1=C/c1ccccc1Sc1ccc(Cl)cc1,9.1
11,COc1cc(NC(=O)Cc2ccccc2)ccc1NC(=O)c1ccco1,5.4
12,Cc1c(N=Cc2ccc(-c3cccc(Cl)c3)o2)c(=O)n(-c2ccccc2)n1C,2.6
13,COc1c(Cl)cc(/C=C2/SC(=S)N(Cc3ccccc3)C2=O)cc1Cl,4.2
14,COc1ccccc1NCC(=O)N/N=C\c1c(F)cccc1Cl,2
15,COc1cc(C(=O)N/C(=C/c2ccc(F)cc2)C(=O)NC(C)C(=O)O)cc(OC)c1OC (stereo not drawn),2.5
16,COc1ccccc1/C=C1\C(=O)NC(=S)N(c2ccc(Br)cc2C)C1=O,4.6
17,O=C1NN(c2ccccc2)C(=O)/C1=C/c1cccc(Cl)c1Cl,15
18,O=C(NC1CCCCC1)c1cc(Cl)ccc1[N+](=O)[O-],-10.4
19,Cc1ccc(SCCNC(=O)CN(c2ccc(C)cc2)S(C)(=O)=O)cc1,-13.4
20,O=C(CSc1nnc(-c2ccco2)n1-c1ccccc1)c1cccc([N+](=O)[O-])c1,22.7
21,NC(=O)CCC(NC(=O)C(c1ccccc1)c1ccccc1)C(=O)O (stereo not drawn),14
22,O=C(N/N=C/c1c(Cl)cccc1Cl)c1cc(-c2cccc([N+](=O)[O-])c2)n[nH]1,-7.9
23,Cc1cc(C)c(NC(=O)C(C)SCC(=O)Nc2ccc3ccccc3c2)c(C)c1 (stereo not drawn),10.3

row,Structure (SMILES),displacement [%]
1,Cc1no[n+]([O-])c1COc1ccc(/C=C2\SC(=S)NC2=O)cc1,-27.5
2,O=C(N=Nc1c(O)[nH]c2ccc(F)cc12)c1ccccc1O,-9.7
3,COc1ccc(C(=O)N2CCN(Cc3ccc(C)cc3C)CC2)cc1,-10.4
4,O=c1oc2c3c(ccc2c2c1CCC2)OCN(c1ccc(Cl)cc1)C3,-5.8
5,NC(=O)C1CCN(C(=O)c2ccc(Cl)cc2)CC1,11.1
6,COc1ccc(/C(O)=C2/C(=O)C(=O)N(CCCCCC(=O)O)C2c2cccc(F)c2)cc1 (stereo not drawn),-16.7
7,Cc1c(/C=C/c2nc3ccccc3c(=O)n2-c2ccccc2)c2ccccc2n1C,22.5
8,O=C(Nc1ccc2ccccc2c1)/C(=C\c1ccc(Br)cc1)NC(=O)c1ccco1,23.9
9,COc1ccccc1C(=O)N1CCN(C2CCN(Cc3ccccc3)CC2)CC1,-10.8
10,COc1ccc(S(=O)(=O)N(CCc2ccccc2)CC(=O)Nc2ccccc2F)cc1,9.4
11,O=C(NCC1(c2ccccc2)CCCC1)c1ccccc1,5.1
12,CCOC(=O)c1c(NC(=O)c2cc(OC)c(OC)c(OC)c2)sc(C(=O)Nc2ccccc2C(F)(F)F)c1C,-13.9
13,COc1ccc(Cc2cnc(NC(=O)c3ccc([N+](=O)[O-])cc3)s2)cc1,7.8
14,O=C(O)c1ccc(N2CCC(c3ccccc3)=N2)cc1,-1.5
15,O=C1/C(=C/c2ccc3c(c2)OCO3)SC(=NCc2ccccc2)N1Cc1ccccc1,11.4
16,CSc1nc(C)cc(-n2cc(Br)c(=O)[nH]c2=O)n1,-4.2
17,COc1ccc(OCCCN2CCOCC2)cc1,5.5
18,COC(=O)C1=NN(C(=O)c2ccc(Cl)cc2)C(O)(c2ccccc2)C1 (stereo not drawn),-7.4
19,O=C(O)/C=C/c1cccc(NC(=O)CCc2ccccc2)c1,-7.2
20,COc1ccc(NC(=O)c2ccc(CN(c3ccccc3)S(C)(=O)=O)cc2)cc1OC,-5.7
21,Cc1ccc(/C(O)=C2/C(=O)C(=O)N(CCCCCC(=O)O)C2c2ccc([N+](=O)[O-])cc2)cc1 (stereo not drawn),-21
22,CCC(C)c1ccc(NC(=O)Cc2ccccc2OC)cc1 (stereo not drawn),9.7
23,CC(=O)c1ccc(NC(=O)C2CCCCC2)cc1,1.1

row,Structure (SMILES),displacement [%]
1,Cc1cccc(C(=O)NCC2CCCO2)c1 (stereo not drawn),-46.5
2,COc1cc(NC(=O)c2ccc(C(C)(C)C)cc2)ccc1NC(=O)c1cc2ccccc2o1,0.8
3,COc1ccc(-c2nc(NC(=O)c3ccco3)sc2-c2ccc(OC)cc2)cc1,-7.7
4,CC(C)c1ccc(/C=C/C(=O)N2CCN(c3ccc([N+](=O)[O-])cc3)CC2)cc1,-6.7
5,O=C1c2cccc3c([N+](=O)[O-])ccc(c23)C(=O)N1n1cnnc1,36.8
6,Cc1cc(C)nc(NS(=O)(=O)c2ccc(NC(=O)CSc3nccn3C)cc2)n1,1.2
7,CCc1c(C)c2ccc(OCC(C)=O)cc2oc1=O,5.9
8,O=C(Nc1ccccc1F)c1cc2cc([N+](=O)[O-])ccc2oc1=O,12
9,O=C(c1cccc(Br)c1)N1CCN(c2ccccn2)CC1,-1.6
10,Cc1occc1C(=O)Nc1sc2c(c1C(N)=O)CCC(C(C)(C)C)C2 (stereo not drawn),45.9
11,COc1ccc(/C=N/NC(=O)Cn2cnc3ccccc32)c(OC)c1OC,-0.6
12,Cc1cccc(NCCC(=O)c2cccs2)c1C,4.7
13,CCOC(=O)C1=C(C)N(c2ccccc2)C(=S)NC1c1ccc(Br)cc1 (stereo not drawn),5.1
14,COc1ccc(C2/C(=C(/O)c3ccc(Cl)cc3)C(=O)C(=O)N2c2nccs2)cc1OC (stereo not drawn),10.3
15,O=C(CCCCCN1C(=O)c2cccc3cccc(c23)C1=O)NCCCO,1.4
16,O=C(Nc1cccnc1)Nc1ccccn1,18.1
17,O=c1[nH]c(NCCO)nc2ncn(Cc3ccccc3)c12,3.9
18,CCCCOP(=O)(OCCCC)C(Nc1ccccc1)c1ccc(OC)cc1 (stereo not drawn),52.1
19,COc1ccc(CC(=O)Nc2ccc(O)c(-c3nc4cc(Cl)ccc4o3)c2)cc1OC,30.5
20,Cc1ccc2nc(NC(=O)c3cccc(Br)c3)sc2c1,4.6
21,CCC(=O)Nc1ccc(N2CCOCC2)cc1,-3.6
22,O=c1oc2cc(OCCO)ccc2c2c1CCC2,-2.8
